# Data from PubChem BioAssay AID686979 (National Center for Advancing Translational Sciences (NCATS), 2013).
# Out of some 420,000 compounds screened, about 50,000 (12%) were called active. Inconclusive results (about 26%) are left out. Calls follow the shape of the dose curve; as a rule, active = well fitted inhibition curve with a large enough effect; inconclusive = small, poorly fitted or top-dose-only effect; inactive = flat fitted curve, though single readings scatter. The entries are a selection whose mix differs from that of the whole data set.
# Test: qHTS for Inhibitors of human tyrosyl-DNA phosphodiesterase 1 (TDP1): qHTS in cells in presence of CPT; also: nearly all actives have a fitted effect of over 55% in size
# Settings: chicken DT40 Tdp1-/-;hTDP1 cells + 20 nM CPT, ATP luminescence, 48 h; series mostly up to 46.2 µM; activity change, negative = growth inhibition: at the top concentration
# Procedure, shortened: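 Chicken DT40 Tdp1-/- cells stably complemented with human TDP1 were seeded at 400 cells/well in medium containing 20 nM camptothecin, exposed to pin-transferred compounds, and grown at 37 °C for at least 48 hr. Viability was read as ATP luminescence.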
# % is scaled to controls: 0 for no effect and ±100 for the full control effect; potency is read from the fitted curve at half-maximal effect.
SMILES,"activity change, negative = growth inhibition",Potency
COc1ccc(N2C(=O)CSC2c2ccccc2)cc1 (stereo not given),inactive: 32.7%,–
CCCCN(Cc1ccccc1)S(=O)(=O)c1ccc2c(c1)CC(C)N2C(=O)CC (stereo not given),–,active: 23.1 µM
Cc1ccc(OCC(=O)c2cc(C)n(-c3cc(C)on3)c2C)c([N+](=O)[O-])n1,–,active: 10.3 µM
CC[C@H](C)/C=C(C)/C=C/C1=CC2=CC(=O)[C@]3(C)OC(=O)[C@@H](C(C)=O)[C@@H]3C2=CO1,–,active: 2.06 µM
OC(COCC1COc2ccccc2O1)CN1CCN(c2ccccn2)CC1 (stereo not given),inactive: -25%,–
NC(=O)CN1CCN(C(=O)NC2CCCCC2)CC1,inactive: 52.3%,–
Cc1cc(NC(=O)C2CCN(S(=O)(=O)c3c(C)noc3C)CC2)ccc1Br,inactive: -29.2%,–
CC(=O)C[C@H]1c2ccccc2S(=O)(=O)N1C1CCCCC1,inactive: -16.8%,–
CC(=O)CC(=O)Nc1ccc(Cl)cn1,inactive: 35.6%,–
CCOc1ccc(CN2CCNC(=O)C2CC(=O)O)cc1 (stereo not given),inactive: 30.6%,–
CCc1ccccc1N(C)C(=O)C1CCCN(c2ncnc3c2nc2n3CCCCC2)C1 (stereo not given),–,active: 18.4 µM
CC(C)(C)c1cc(NC(=O)C2(C)CCN2C(=O)C2(c3ccccc3)CCCC2)no1 (stereo not given),–,active: 14.6 µM
CCOc1ccc(N2CC(C(=O)N3CC(C)OC(C)C3)CC2=O)cc1 (stereo not given),inactive: 37.1%,–
CCOC(=O)C1=C(CSc2nc3ccccc3s2)NC(=O)NC1c1ccc(OC)cc1 (stereo not given),–,active: 20.6 µM
COc1ccc(OC)c(CNC(=O)C2CCN(S(=O)(=O)N3CCCCC3)CC2)c1,inactive: -1.98%,–
Cc1ccc(NC(=O)CSc2nc(C)c(Cc3ccccc3)c(=O)[nH]2)cc1,inactive: 0.736%,–
COC(=O)c1ccc(NC(=O)CCS(=O)(=O)c2ccc(Br)cc2)cc1,inactive: -13.5%,–
CC(C)(C)OC(=O)NC(CC(=O)OCc1ccccc1)C(=O)O (stereo not given),inactive: -11.4%,–
O=C1CN(C(=O)CNC(=O)c2ccccc2Cl)c2ccccc2N1,inactive: 24.1%,–
Nc1cc(=O)[nH]c(N)n1,–,inactive
COc1ccc(NC(=O)C2CCN(C(=O)Cc3ccccc3)CC2)c(OC)c1,inactive: 45.7%,–
COc1cc(/C=N\NC(=O)c2ccccc2F)ccc1Oc1ccc([N+](=O)[O-])cn1,–,active: 4.61 µM
O=S1(=O)CCOC[C@H](Cc2ccccc2)N1Cc1ccccc1Br,inactive: -0.698%,–
CNC(=O)C(=O)NCC1OCCCN1S(=O)(=O)c1ccc2c(c1)OCCO2 (stereo not given),inactive: 34%,–
CC(C)N1CCN(Cc2cc(F)ccc2-n2cccn2)CC1CCO (stereo not given),inactive: 43.4%,–

SMILES,"activity change, negative = growth inhibition",Potency
N#C/C(=C/c1ccc(-c2cccc([N+](=O)[O-])c2)o1)C(=O)Nc1nc(-c2cccs2)cs1,inactive: -21.2%,–
Cc1cccc(N2CCN(C(=O)c3ccccc3OCc3c(C)noc3C)CC2)c1C,–,active: 18.4 µM
CC(=O)NC1CC2CCCC(C1)N2C(=O)Nc1cccc(Cl)c1 (stereo not given),inactive: 30.6%,–
Nc1c(N(Cc2ccco2)C(=O)COc2ccccc2)c(=O)[nH]c(=O)n1Cc1ccccc1,inactive: 12%,–
O=C1NS(=O)(=O)c2ccccc21,inactive: -18.6%,–
Cc1ccc(S(=O)(=O)NC(=O)N(C)C2CCCCC2)cc1,inactive: 39.4%,–
CC(C)(C)c1cc(NC(=O)COC(=O)C2CC2)n(-c2ccccc2)n1,inactive: -5.02%,–
Cc1cccc(-c2nc(C)cc(=O)[nH]2)c1,inactive: 34%,–
CC1CCCCN1C(=O)Cn1cnc2cc([N+](=O)[O-])ccc2c1=O (stereo not given),–,active: 14.6 µM
OCC[C@@H]1C[C@@H](O)[C@H](O)[C@]2(Cc3ccccc3O2)O1,inactive: -6.27%,–
CCCCCC(=O)N1C[C@H](O)[C@@H](n2cc(COC(=O)c3ccccc3)nn2)C[C@@H]1c1ccccc1,inactive: -22.4%,–
CCOC(=O)[C@H](CCc1ccccc1)N[C@@H](C)C(=O)N1C(C(=O)O)C[C@@H]2CCC[C@@H]21 (stereo not given in full),inactive: 0.0051%,–
CCN(CC)c1ccc(NC(=O)c2cnn(-c3ccccc3)c2-n2cccc2)c(C)c1,–,active: 14.6 µM
COc1ccc(-c2nc(CS(=O)(=O)CC(=O)NCc3ccccc3Br)c(C)o2)cc1,inactive: -1%,–
CCOc1ccc(NC(=O)c2sc3nc4n(c(=O)c3c2C)CCC4)cc1,inactive: -6.12%,–
Cc1ccc(N(CC(=O)N/N=C/c2ccc(OCC(N)=O)cc2)S(C)(=O)=O)cc1Cl,inactive: 32.1%,–
O=C(N/C(=C/c1ccc(Br)cc1)C(=O)N1CCCC1)c1cccs1,inactive: -0.234%,–
C[C@@H]1CN([C@H](C)CO)C(=O)Cc2cc(NC(=O)Cn3cnnn3)ccc2O[C@@H]1CN(C)Cc1ccc(Cl)c(Cl)c1,–,active: 18.4 µM
CCn1c(SCC#N)nc2ccccc2c1=O,inactive: 6.23%,–
COc1ccc(NC(=O)CSc2nc3ccccc3nc2N2CCOCC2)c(OC)c1,inactive: -23.7%,–
Cc1cccc(CNC(=O)c2ccc3c(c2)N(C)CCS3)c1,inactive: -23.7%,–
O=C(CCCN1CCN(c2ccccn2)CC1)c1ccc(F)cc1,–,inactive
Cc1cc(C)c(S(=O)(=O)c2ccccc2C)c(OCCO)n1,inactive: 30.2%,–
CC1CCN(CC(C)OC(=O)c2ccco2)CC1 (stereo not given),inactive: 23.3%,–
N#CC1=C(N)OC2=C(C(=O)CCC2)C1c1ccoc1 (stereo not given),inactive: 0.278%,–
